Binding data for eight substances are collected here from publication PMC3347801.

No constants are given. Whether binding was seen depends on the method and setting. In cells and extracts the contact can be indirect. Some results given as binding are weak or reduced against the parent protein; the word gives no strength.

For this experiment, the target named is HCV envelope glycoprotein E2, wild type (genotype 1a strain H77c) (hepatitis C virus genotype 1a strain H77c) (UniProt P27958). Put plainly: co-IP; lysates of transfected HEK-293T cells (20 mM Tris/HCl pH 7.4, 150 mM NaCl, 1 mM EDTA, 1 % Triton X-100, 20 mM iodoacetamide) immunoprecipitated with anti-E2 serum R646, 2 h at 4 °C, protein A–Sepharose; reducing and non-reducing SDS-PAGE; blot with anti-E1 mAb A4 and anti-E2 mAbs AP33 and ALP98; grades are the estimated amount relative to WT.
Turning to “HCV E1 glycoprotein insertion mutant in218 (from UniProt P27958 192-383)”, the binding result is “binds”.
Regarding “HCV E1 glycoprotein insertion mutant in231 (from UniProt P27958 192-383)”, the binding result was “binds”.
Next, “HCV E1 glycoprotein insertion mutant in253 (from UniProt P27958 192-383)”: “binds”; “HCV E1 glycoprotein insertion mutant in263 (from UniProt P27958 192-383)”: “binds”.
Consider “HCV E1 glycoprotein insertion mutant in324 (from UniProt P27958 192-383)”, for which the binding result is “binds”.
Next, “HCV E1 glycoprotein insertion mutant in341 (from UniProt P27958 192-383)”: “binds”; “HCV E1 glycoprotein insertion mutant in343 (from UniProt P27958 192-383)”: “binds”; “HCV E1 glycoprotein insertion mutant in352 (from UniProt P27958 192-383)”: “binds”.
